Reference: the RNAGym collection of RNA variant scans (doi:10.1073/pnas.2313332121)
This sample is rich in variants without activity.

B1: TPR 5TU (parent)
chain: GGAUCUUCUCGAUCUAACAAAAAAGACAAAUCUGCCACAAAGCUUGAGAGCAUCUUCGGAUGCAGAGGCGGCAGCCUUCGGUGGCGCGAUAGCGCCAACGUUCUCAACUAUGACACGCAAAACGCGUGCUCCGUUGAAUGGAGUUUAUCAUG

Variants of: B1
Test: polymerase ribozyme fitness, log enrichment relative to wild type (log ratio); higher = more active; in vitro selection for triplet polymerase activity
In short: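 Mutant libraries of both subunits of a heterodimeric triplet polymerase ribozyme were PCR-built, transcribed, and selected once in triplicate, with frozen incubation at −7 °C and capture of gel-excised extended constructs on streptavidin beads before RT-PCR. Illumina sequencing of input and output libraries was filtered to genotypes with ≥10 input reads and ≥1 read per output. Fitness is the logarithm of genotype enrichment over wild-type enrichment, using inverse-variance-weighted replicate averages. The logarithm is base 2.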

Variant	polymerase ribozyme fitness (log ratio)
U4G C87G	≤ -4.2
U4G A12U G50U A91U	≤ -4.2
U4G C8A C14G G68C	≤ -4.2
C5G C10U C14U G42C U53A G58A A107U C118A	≤ -4.2
C5G A20G C75U C87U A119G A142G	-3.16
C5G A41U A49C C87G A98G	≤ -4.2
C5A A30C C87A	≤ -4.2
C5G A26C C27A A40C	≤ -4.2
U4G A29C G94U U146A U148C	≤ -4.2
C5A C36U C79U A121G	≤ -4.2
C5G C14A C35U G65C A73C G92C	≤ -4.2
C5G A26G A41U C43G G50U C54U	≤ -4.2
C5G C32A C85U U134G	≤ -4.2
C5A C8G C10G A52G G84A U127A U139A	≤ -4.2
C5G G11C C36U A110G C118U U135C G143C	≤ -4.2
C5A A47G A73G G83C C87U G152C	≤ -4.2
U4G C32G C105U A150C	≤ -4.2
C5G A16G A20U U61A C75U C96A A119U G133C	≤ -4.2
C5G G59A G71A G84A A91G	≤ -4.2
U4G C27G G80C C93A U127C G143A U144C	≤ -4.2
U4G A12U C76G A89U C96U	≤ -4.2

Variant	polymerase ribozyme fitness (log ratio)
C5G A29C G58U C93U G94A G143U	≤ -4.2
C5G C35U A37G A49C A73U G83C	≤ -4.2
C5A C10U A28U A39U U45G G68A A73G G84A	≤ -4.2
C5G C27U A29C C76A G94A C96G A110G U111G G136U	≤ -4.2
C5G A28U G46A A52C U53A G71A C93A C105G C114G G141C	≤ -4.2
C5A A21C C35U G74C G128U U139G	≤ -4.2
C5A A12C A19U U102G C116A A119G U135A G136C	≤ -4.2
C5G C14G A22U G81C C118U U144C	≤ -4.2
U4G A29G C43U G71A G83A C95U C108A	≤ -4.2
U4G U13G A39C A52G G86A C114A A115G C123A G141A	≤ -4.2
C5A A16G G50U C51A A89U U134G A137G G140A A142C A147C	≤ -4.2
C5G A24C C27U G86A C96G	≤ -4.2
U4G A29G U31C C93A C95A U102C A147U	≤ -4.2
C5G A52G G80A	-1.81
C5G C14A C18G A49C U77G G92A C105G G143A	≤ -4.2
U4C U15C A22C A29U C43G U44A U45G C57U G59U C93U	≤ -4.2
C5G A20C A66G U144A	≤ -4.2
C5A C32U G74C A91G A142G	≤ -4.2
U4G A26U A37U C96U C118U	≤ -4.2
C5A U33C C38U G48A C57A G59C	≤ -4.2
C5A A21C G74A U82G G92U	≤ -4.2

Variant	polymerase ribozyme fitness (log ratio)
C5G C43G G94A	≤ -4.2
U4G A39G A142G	-3.9
C5G C57G G67U C79A A91U C108G U130G G143C	≤ -4.2
C5G G11C U56A U78G G83A C129U	≤ -4.2
U4G A28G U90G C96U G124C C149A	≤ -4.2
C5G A17G C35A A47C G58U C95U A137C G140A	≤ -4.2
U4G A12G A22U U53A C72G G100A U111G C125U	≤ -4.2
C5A A49G C79A G84A G117C	≤ -4.2
C5A U6A C14G C27A G42C U53G A66C C75G G84U A142G	≤ -4.2
U4G U7C A12G A22U C43G C99G A106C	≤ -4.2
U4G A12G C18A A21G A91U C95G G100U A137G	≤ -4.2
C5A A40G C63U A64G U77A G84A	≤ -4.2
U4G A16C U44A U55G G65C C75U C118U C132A G143C	≤ -4.2
C5G A16C A29G G71A C99A C125U G140U	≤ -4.2
U4C U77A C105A A122U	≤ -4.2
C5A A26U C35G A39U C76U C85U C118U A119C	-4.09
C5A A37U G84A U135A U139A G141C	≤ -4.2
U4G A49C G58A	≤ -4.2
C5G A28U G83A G124U C125U U144C	≤ -4.2
C5G C8A A49G G50A A137U U146C	≤ -4.2
U4G C18G A20U A21U A40C A73G G74U A107C	≤ -4.2

Variant	polymerase ribozyme fitness (log ratio)
U4G C87A C99U	≤ -4.2
U4G A22C A37U A40C A137C	≤ -4.2
C5G C10G A26C C93U A106G G140U	≤ -4.2
C5A A40C A47C C87A A115G	≤ -4.2
C5A A17G A21C C32U G50U A98U C108U	≤ -4.2
C5A U6G G67C G68A C87A U101A A106U C108G C149G	≤ -4.2
C5A C85U A97U G143A	-1.87
U4G A24C A28U G59A G68C C93U A138U	≤ -4.2
C5A A19U A23C C57A G68C C75U U77A G86U G143C	≤ -4.2
U4G U15G C57G C87A	≤ -4.2
C5A U55C C87G	≤ -4.2
C5A C27U C85U C93G A107G	≤ -4.2
U4G A24C C35A C38A A47C U53A G68A U77A A115G	≤ -4.2
U4C U9G C108A U144G	≤ -4.2
U4G U31C G59C G68C G83A C99U	≤ -4.2
C5A U44G	≤ -4.2
C5A A52U U55A G88U C129U A142C U146A	≤ -4.2
U4G C32G C85U U151G	≤ -4.2
C5A C27G C54U G71A G84A U135G U144G	≤ -4.2
C5A C27A G34U U56A C125G	≤ -4.2
